Measured values as given in PubChem BioAssay AID624296 (National Center for Advancing Translational Sciences (NCATS), 2012).
The campaign covered roughly 350,000 compounds. About 9,900 (2.8%) were called active. The shares of active, inactive and inconclusive entries below differ from those in the screen. Calls come from the whole dose curve; as a rule, active = well fitted activation curve with a large enough effect; inconclusive = small, poorly fitted or top-dose-only effect; inactive = no such curve, though single readings can be large or run the other way. Potencies of inconclusive entries are left out as doubtful fits.

Test: A quantitative high throughput screen for small molecules that induce DNA re-replication in MCF 10a normal breast cells. Note: nearly all actives have a fitted effect of over 50% in size.
Conditions: MCF 10A DNA re-replication, Hoechst nuclear intensity, 48 h; series mostly up to 46.1 µM
Potency is the fitted concentration of half-maximal effect; tags give direction and shape of the fitted curve.

SMILES | Potency
CCCOc1ccc(Oc2ccc(S(=O)(=O)N3CCN(C)CC3)cn2)cc1 | inconclusive [activator, partial curve, poor fit]
O=C(Nc1ccc2c(c1)OCO2)c1ccncc1 | inactive
OC(c1cc(-c2ccc(Cl)cc2)nc2ccccc12)C1CCCCN1 (centres undefined) | inactive
O=C1C=C(c2cccs2)C[C@H](c2ccccc2)[C@H]1n1nnc([N+](=O)[O-])n1 | inconclusive [activator, full curve]
Cc1cc2c(cc(C(=O)NCCCN3CCOCC3)n2Cc2ccc(Cl)cc2)o1 | active: 23.1 µM
Clc1cccc(Cl)c1CSc1nnc(CN2CCOCC2)n1-c1ccccc1 | inconclusive [activator, single point]
O=C(c1cnn2c(-c3ccccc3)cc(-c3ccccc3)nc12)N1CCN(Cc2ccccc2)CC1 | inconclusive [activator, partial curve, poor fit]
Cc1ccc(C(=O)Nc2ccc(N3CCN(C(=O)c4cccs4)CC3)cc2)c(Cl)c1 | inconclusive [activator, partial curve, poor fit]
CC(OC(=O)c1ncc(Cl)c(Cl)c1Cl)C(=O)NC1(C#N)CCCCC1 (centres undefined) | inconclusive [activator, single point]
CCCn1cnc2cc(NCc3ccc(Br)cc3)ccc21 | inconclusive [activator, partial curve, poor fit]
COc1cccc2cc(-c3ccccc3)oc12 | inconclusive [activator, partial curve, poor fit]
COc1ccc(S(=O)(=O)NCC2CCC(C(=O)O)CC2)cc1 (centres undefined) | inactive
O=C(O)c1cc(-c2ccccc2)nc(-c2ccccc2)c1 | inconclusive [activator, single point]
CC1(C(=O)OCC(=O)Nc2nc(-c3ccc(F)c(F)c3)cs2)CC1(Cl)Cl (centres undefined) | inconclusive [activator, single point]
Cn1nc(C(F)(F)F)c2cc(C(=O)Nc3ccc(C(F)(F)F)cc3)sc21 | inconclusive [activator, single point]
COc1ccccc1-c1nnc(NC(=O)c2ccc(S(=O)(=O)N(C)Cc3ccccc3)cc2)o1 | inconclusive [activator, partial curve]
Cc1cc(CN2CCN(CCC#N)CC2)c(O)c(C2(C)CCCCC2)c1 | inconclusive [activator, partial curve, poor fit]
COc1ccc(C(=O)c2c3ccc(OC)cc3[n+]([O-])n2Cc2ccc(C(N)=O)cc2)cc1 | inconclusive [activator, partial curve, poor fit]
CCN(C(=O)c1ccc2c(Cl)c3c(nc2c1)CCC3)c1cccc(C)c1 | inconclusive [activator, single point]
CC1(C)CC(=O)C(/C=N/n2c(C(F)(F)F)nc3ccccc3c2=O)=C(O)C1 | inconclusive [activator, single point]
Nc1ccc(-c2nc3cc(N)ccc3o2)cc1 | inactive
CCN(CC)c1ccc(C(=O)n2cnc3ccccc32)cc1 | inconclusive [activator, single point]
Cc1c(Cl)cccc1NC(=S)NCCC(C)C | inactive

SMILES | Potency
CCn1c2ccccc2c2nnc(SCC(=O)N3CC(C)OC(C)C3)nc21 (centres undefined) | inconclusive [activator, single point]
Cc1ccc(NC(=O)c2sc(Cl)nc2-c2ccccc2)cc1 | inconclusive [activator, single point]
CCOc1ccc(C(=O)n2cc(C(=O)OC)c3ccccc32)cc1 | inconclusive [activator, single point]
Cc1cc(N2CCN(C)CC2)nc2ccc(NC(=S)N3CCN(c4cccc(Cl)c4)CC3)cc12 | active: 7.31 µM
CC(C)CCc1noc(CN(C)CC2CCN(Cc3ccccc3)CC2)n1 | inconclusive [activator, partial curve, poor fit]
CCOc1ccc(NC(=O)CN(C)CC(=O)Nc2cc(Cl)ccc2C#N)cc1OCC | inactive
COc1ccc(C(=O)Nc2cccc3c2CCCC3)cc1OC | inconclusive [activator, single point]
O=c1oc2ccccc2c(N2CCC(c3ccccc3)CC2)c1[N+](=O)[O-] | inactive
Cc1noc(C)c1COC(=O)c1ccccc1NC(=O)Cc1ccccc1 | inconclusive [activator, single point]
CCc1ccccc1NC(=O)CCC(=O)N1CCSc2ccccc21 | inactive
O=C(Nc1ccc2c(c1)OCCO2)C1CC1c1ccccc1 (centres undefined) | inconclusive [activator, partial curve, poor fit]
CCC1Oc2ccc(C)cc2N(CC(=O)NC2CCCCC2)C1=O (centres undefined) | inactive
COC(=O)CCCC1=CC2=C(c3ccccc3)C(=O)C(C)(OC(=O)C3CCCC3)C(=O)C2=CN1Cc1ccco1 (centres undefined) | inconclusive [activator, partial curve, poor fit]
COc1ccc(C(=O)N/N=C(\Cc2ncc[nH]2)c2ccccc2)cc1 | inconclusive [activator, single point]
Nc1cc2c(cc1Cl)-c1ccc([N+](=O)[O-])cc1C2=NO | inactive
CCOc1ccc2c(c1)C(=O)C(=O)N2CC1COc2ccccc2O1 (centres undefined) | inconclusive [activator, full curve]
Cc1cc(N2CCN(C/C=C/c3ccccc3)CC2)n2ncnc2n1 | inactive
CC(C)NC(=O)NC(=O)COC(=O)CCOc1ccccc1 | inactive
Cc1cccc(OCC(=O)Nc2ccccc2-c2ccccc2)c1 | inconclusive [activator, single point]
CCN(CC(=O)Nc1ccc(OC)cc1)CC(=O)Nc1ccc(Br)cc1F | inactive
CN(C)c1ccc(P(=O)(COc2ccc([N+](=O)[O-])cc2)c2ccc(N(C)C)cc2)cc1 | inconclusive [activator, full curve, poor fit]
CCOC(=O)CN1C(=O)N[C@@H](c2ccco2)C(C(=O)OC)=C1C | inconclusive [activator, full curve, poor fit]
N#Cc1ccc(C(=O)OCCc2cc3ccccc3c(=O)o2)cc1 | inconclusive [activator, partial curve, poor fit]

SMILES | Potency
O=C(Nc1nnc(-c2ccccc2)s1)c1cc(S(=O)(=O)N2CCOCC2)c(Cl)cc1Cl | inconclusive [activator, single point]
CCOC(=O)c1sc(NS(=O)(=O)c2cc(C)ccc2C)nc1C | inconclusive [activator, partial curve]
COC(=O)c1[nH]c2ccc(C)cc2c1NC(=O)Nc1ccc(OC)cc1 | inactive
COc1ccccc1-c1nc(SCC(=O)Nc2ccccc2F)n[nH]1 | inconclusive [activator, single point]
CC(=O)c1ccc2noc(-c3ccc(Cl)cc3)c2c1 | inconclusive [activator, partial curve, poor fit]
CCCCn1c(SC(C)C(N)=O)nc2cc(C(=O)OC)ccc2c1=O (centres undefined) | inactive
CCN(CC(=O)NCc1cccs1)S(=O)(=O)c1ccc(F)c(F)c1F | inconclusive [activator, partial curve, poor fit]
O=C(Nc1cccc(Cl)c1)N1CCN(C2c3ccccc3-c3ccccc32)CC1 | inconclusive [activator, partial curve, poor fit]
O=C(Nc1ccc(C(=O)Nc2ccccc2Cl)cc1)c1cccnc1 | inactive
C/C(=C\C(=O)c1ccc(Br)cc1)NNC(=O)c1ccc(O)cc1 | inactive
CCOc1ccc(-c2cc(C(=O)O)c3ccccc3n2)cc1 | inactive
CCOc1ncccc1C(=O)Nc1ccc(S(=O)(=O)N2CCCC2)cc1 | inactive
CCOc1cc2nc(-c3ccc(OC)c(OC)c3)nc(NCCCN3CCOCC3)c2cc1OC | active: 11.6 µM
CCOC(=O)CCC(NC(=O)CCCC(=O)NC(CCC(=O)OCC)C(=O)OCC)C(=O)OCC (centres undefined) | inconclusive [activator, full curve, poor fit]
CCN(c1cccc(C)c1)S(=O)(=O)c1ccc2c(c1)N(C(C)=O)CCS2 | inactive
CCOc1ccc(C(=O)Nc2nnc(SCC(=O)NCC3CCCO3)s2)cc1 (centres undefined) | inactive
Cc1cccc(Nc2nnc(SCc3cn4ccsc4n3)s2)c1 | inconclusive [activator, partial curve, poor fit]
O=S(=O)(NC1CCCCC1Oc1ccccc1)c1ccc(Cl)cc1 (centres undefined) | inconclusive [activator, full curve, poor fit]
Cn1c(C(=O)N2CCCC(C(=O)O)C2)cc2sccc21 (centres undefined) | inactive
CCOc1ccc2[nH]c(=O)c(CN(CCCO)S(=O)(=O)c3ccc(F)cc3)cc2c1 | inconclusive [activator, single point]
Cc1ccc(S(=O)(=O)NCC(=O)N(CC(=O)NCC2CCCO2)Cc2ccccc2Cl)cc1 (centres undefined) | inactive
O=C(Nc1ccc(Cl)cc1)[C@@H]1[C@@H]2C(=O)N(c3ccc(Cl)cc3)C(=O)[C@@H]2[C@H]2C=CC=NN21 | inconclusive [activator, single point]
Cc1cccc(N2CCN(Cc3nc(-c4cccc(Cl)c4)oc3C)CC2)n1 | inconclusive [activator, single point]
